Experimental data published in PubChem BioAssay AID488969 (Vanderbilt High Throughput Screening Facility, 2010).
Whole data set: some 110,000 compounds, median “z-score” near -0.1, cut for the highest 2% near 2. This is one part of the list. Activity calls are given as the source filed them.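 The calls were made as follows: active = z-score in the third read window above 3 or below -3; inactive = the rest.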

The compounds below were run against Metabotropic glutamate receptor 8 (Rattus norvegicus) (UniProt P70579) (assay: rat mGluR8 modulators via GIRK flux, primary screen, cell-based, thallium flux, HTS (AID 488969)). Conditions: HEK293 rat mGluR8, GIRK (G protein-gated inwardly rectifying potassium channel) thallium flux, FluoZin2; at 10 µM; stronger effect = higher value; submaximal glutamate (EC20) added with thallium.
UniProt P70579, sequence (P70579 whole entry, looked up): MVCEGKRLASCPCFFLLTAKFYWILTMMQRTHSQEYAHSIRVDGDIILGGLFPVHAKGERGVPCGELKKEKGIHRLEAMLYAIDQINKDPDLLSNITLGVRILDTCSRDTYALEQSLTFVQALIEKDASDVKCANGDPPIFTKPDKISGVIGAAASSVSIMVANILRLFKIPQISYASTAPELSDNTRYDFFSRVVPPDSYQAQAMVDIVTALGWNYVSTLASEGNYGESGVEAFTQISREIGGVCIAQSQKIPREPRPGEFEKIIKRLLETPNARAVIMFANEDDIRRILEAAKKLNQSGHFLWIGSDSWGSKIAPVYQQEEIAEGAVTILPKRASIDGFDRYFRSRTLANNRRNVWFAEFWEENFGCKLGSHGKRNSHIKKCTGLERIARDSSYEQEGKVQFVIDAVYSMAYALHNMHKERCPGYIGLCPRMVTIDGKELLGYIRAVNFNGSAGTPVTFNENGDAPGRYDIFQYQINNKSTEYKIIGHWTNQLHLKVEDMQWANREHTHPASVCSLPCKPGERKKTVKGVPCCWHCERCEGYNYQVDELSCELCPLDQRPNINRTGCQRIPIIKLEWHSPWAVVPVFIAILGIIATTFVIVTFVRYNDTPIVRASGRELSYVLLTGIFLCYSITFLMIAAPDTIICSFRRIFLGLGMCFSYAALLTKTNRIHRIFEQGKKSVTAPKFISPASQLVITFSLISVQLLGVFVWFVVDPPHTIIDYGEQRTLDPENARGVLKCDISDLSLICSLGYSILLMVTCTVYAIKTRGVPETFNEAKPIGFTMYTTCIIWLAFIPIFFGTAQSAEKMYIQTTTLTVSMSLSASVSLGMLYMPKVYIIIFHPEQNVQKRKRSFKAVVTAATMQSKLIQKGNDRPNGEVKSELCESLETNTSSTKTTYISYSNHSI

SMILES | z-score
Cc1csc(SCC(=O)NC2CCCCC2)n1 | 0.0512
O=C1C2C(C(=O)N1/N=C/c1cc(Br)cc([N+](=O)[O-])c1O)C1C=CC2C12CC2 (stereo not given) | -0.105
NNc1nnc(-c2ccccc2)c(-c2ccccc2)n1 | -0.209
CCCCC(=O)/C=C/n1c(=S)oc2ccccc21 | 0.18
CC(C)(C)c1ccc(C(=O)N/N=C2\C3CN4CCN(C3)CC2(c2ccccc2)C4)cc1 | -0.109
CNC(=S)NN(c1ccccc1)c1ccccc1 | -0.0349
CCOc1ccc(C2c3c(oc4ccccc4c3=O)C(=O)N2CCCN2CCOCC2)cc1OCC (stereo not given) | -0.261
CSc1ncccc1C(=O)NCc1ccc(C)cc1 | -0.146
CCn1c(SCC(=O)Nc2nccs2)nnc1-c1ccc(S(=O)(=O)N2CCCCC2)cc1 | -0.571
C=CCNC(=S)NNc1ncnc2sc3c(c12)CC(C)(C)OC3 | -0.0467
COC(=O)c1sccc1-n1cccc1C(=O)C(=O)N1CCCCC1 | 0.164
O=C(CSc1nc2c(cnn2-c2ccc(F)cc2)c(=O)[nH]1)N1CCCc2ccccc21 | -1.11
COc1ccc(-n2nnnc2SCC(=O)c2ccc(O)c(O)c2)cc1 | -0.311
COc1ccc(-c2nnc(SCC(=O)N3CCCC(C)C3)o2)c(OC)c1 (stereo not given) | -0.551
COc1ccc(/C=N/NC(=O)/C(=C/c2ccccc2)CCO)cc1 | -0.213
CCOc1ccc(-n2c(SCC(N)=O)nc3c([nH]c4ccccc43)c2=O)cc1 | -0.659
N#CC1=C(SCC(N)=O)NC2=C(C(=O)c3ccccc32)C1c1ccc(Cl)cc1 (stereo not given) | -0.209
COc1ccc(Nc2nnc(SCC(=O)N3CCCC3)s2)cc1 | -0.123
COc1ccc(N2CCN(Cc3ccc(Br)s3)CC2)cc1 | -0.248
O=C(CN1CCCC1)N1c2ccccc2Sc2ccccc21 | -0.191
CCCn1c(C)cc(C(=O)COC(=O)c2cc(S(=O)(=O)NCC(C)C)c(Cl)cc2Cl)c1C | -0.217
COc1ccc(-c2cc(-c3ccc(OC)cc3)c(C#N)c(SC)n2)cc1 | -0.315
CC(C)(C)N(Cc1ccccc1)C(=O)COC(=O)CCc1c[nH]c2ccccc12 | -0.439
Cc1ccc(NC(=S)Nc2ccc3cn[nH]c3c2)cc1 | 0.244

SMILES | z-score
CC(C)NC(=O)N1CCN(c2ccncc2S(=O)(=O)N2CCOCC2)CC1 | 0.465
C=C(C)COc1ccc(-c2n[nH]c(C)c2-c2ccc(Br)cc2)c(O)c1 | 0.114
CCN1CCN(c2ccc(NC(=O)c3cccc4ncccc34)cc2)CC1 | -0.573
CN(C(=O)CSc1nnc(-c2ccccc2)c(-c2ccccc2)n1)C1CCS(=O)(=O)C1 (stereo not given) | -0.261
Cc1ccc2nc(-c3ccc(O)cc3)c(Nc3ccc4c(c3)OCCO4)n2c1 | -1.43
Cc1cc(C)c2cc(CN(Cc3cccnc3)C(=O)c3ccc(F)cc3)c(Cl)nc2c1 | -0.319
CN(C)S(=O)(=O)N1CCN(c2ccccc2)CC1 | -0.987
Cc1cccc(C=Nc2ccccc2C(N)=O)c1 | 0.476
Cc1c(C(=O)N2c3ccccc3Sc3ccccc32)cccc1[N+](=O)[O-] | 0.746
CCOC(=O)c1sc(=S)n(CC)c1NC(=O)CC | 0.17
COc1ccc(N2CCN(C(=O)C3CCCO3)CC2)cc1 (stereo not given) | -0.132
Cc1c(Cl)c([N+](=O)[O-])nn1Cc1ccc(C(=O)N/N=C\c2cccc(Br)c2)o1 | -0.00818
CCN(CC)C(=O)C1CCCN(C(=O)Nc2ccc(NC(=O)N3CCCC(C(=O)N(CC)CC)C3)cc2)C1 (stereo not given) | -0.196
CCOC(=O)c1c(NC(C)=O)sc2c1CCC(C=O)=C2Sc1ccccc1 | -0.306
O=C1c2ccccc2C(O)N1c1ccc(Cl)cc1 (stereo not given) | -0.698
CCNc1oc(-c2ccc(OC)cc2)nc1S(=O)(=O)c1ccc(Br)cc1 | 0.0764
COc1nnc(-c2ccc(N3CCOCC3)c(NC(=O)c3ccc(C)cc3)c2)c2ccccc12 | -0.0573
O=C(O)[C@H](Cc1ccccc1)NC(=O)N1CCOCC1 | 0.842
Cc1ccsc1/C=C(\C#N)C(=O)NCc1cccnc1 | -0.246
Cc1ccc(C)c(SCC(=O)Nc2cc(C)nn2-c2ccc(F)cc2)c1 | -0.244
COc1ccc(C(=O)O/N=C(\N)Cc2ccc(Cl)cc2)cc1OC | -0.494
COc1cc(/C=C/C(=O)Nc2ccc(C(C)=O)cc2)cc(OC)c1OC | -0.984
Cc1cc(C)n2c3c(c(C#N)c2n1)CCCC3 | -1.08
CC(=O)OC(C(=O)NC1CCCCC1)c1ccc(Cl)cc1 (stereo not given) | -0.136

SMILES | z-score
O=[N+]([O-])c1cc(Cl)ccc1NCCNc1ncc(C(F)(F)F)cc1Cl | 0.0771
O=C(Nc1ccccc1N1CCOCC1)c1cnccn1 | -0.146
CCOc1ccc(NC(=S)N2CCc3cc(OC)c(OC)cc3C2COc2ccc3c(C)cc(=O)oc3c2)cc1 (stereo not given) | -0.257
Cc1cc2nc(C3CCCN(C(=S)Nc4ccccc4C)C3)[nH]c2cc1C (stereo not given) | -0.278
c1ccc(Cc2nnc3sc(-c4ccco4)nn23)cc1 | -0.35
O=C(COc1ccc2c(-c3ccccc3)cc(=O)oc2c1)NCc1cccs1 | -0.241
CC(=O)c1cc(-c2ccc(F)cc2)n(CCC(=O)Nc2cc(C)[nH]n2)c1C | -0.277
CCCN(CC(=O)Nc1c(C)cccc1CC)C(=O)SCC | -1.26
O=C(Nc1ccccc1)N1CCc2ccccc21 | -0.39
COC(=O)[C@H](C)NC(=O)NCc1ccc(F)cc1 | 0.136
CN(C)c1ccc(C(CNC(=O)c2ccc(F)cc2)c2c[nH]c3ccccc23)cc1 (stereo not given) | -0.679
CCc1ccc2c(COC(=O)CNS(=O)(=O)c3ccc(NC(C)=O)cc3)cc(=O)oc2c1 | -0.405
Cc1nn(CC(=O)NCc2cc3ccccc3[nH]2)c(C)c1[N+](=O)[O-] | -0.249
CCC(Sc1nc2ccccc2o1)C(=O)Nc1nnc(C)s1 (stereo not given) | -0.41
CSc1ccccc1NC(=O)c1ccncc1 | -0.0118
CC(=O)Nc1nc(-c2ccccc2)c(-c2ccccc2)o1 | -0.185
CCCCNC(=O)c1cc([N+](=O)[O-])[nH]n1 | 0.198
CCC(=O)Nc1cccc(-c2cnc3ccccc3n2)c1 | -0.216
CCOc1cc(/C=C2\N=C(SC)SC2=O)cc([N+](=O)[O-])c1OC(C)=O | -1.23
O=C(CO/N=C1\CCCc2nonc21)Nc1ccc(Br)cc1 | -0.00511
Cc1ccc(-c2cc(C(F)(F)F)n3nc(C(=O)NCCCn4ccnc4)cc3n2)cc1C | -0.0956
CSc1ccccc1C(=O)Nc1cccc(C(C)=O)c1 | active: 3.03
